In all, about 340,000 compounds went through this assay and about 12,000 (3.5%) were called active. The shares of active, inactive and inconclusive entries below differ from those in the screen. The call rests on the fitted dose curve; in most records, active means well fitted inhibition curve with a large enough effect; inconclusive means small, poorly fitted or top-dose-only effect, or another doubt; inactive means no such curve, though single readings can be large or run the other way. Potencies of inconclusive entries are left out as doubtful fits.
Assay: qHTS Assay for Inhibitors of Hepatitis C Virus (HCV)
Settings: Huh7.5.1 HCVcc-Cre (HCVcc is cell-culture hepatitis C virus) infection, luciferase reporter, 44 h; series mostly up to 41.8 µM
Method in brief: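 A cell-based infection assay in which seeded cells (1,000 per well) receive test compound after 4 h, are inoculated with HCVcc-Cre at approximately 0.5 moi, and are incubated 44 h before luminescence detection.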
Potency means the concentration at half of the fitted maximal effect; tags describe the fitted curve by direction and shape.

Row | Structure (SMILES) | Potency
1 | COc1cccc(/C=N/Nc2snc(SC)c2C#N)c1 | inactive
2 | CC(=O)NCCc1c[nH]c2ccc(OCc3ccccc3)cc12 | inconclusive [inhibitor, single point]
3 | O=C(NC1(C(F)(F)F)NC(=O)N(c2ccc(F)c(Cl)c2)C1=O)c1ccncc1 (configuration not stated) | inconclusive [inhibitor, partial curve]
4 | Nc1nnc(CC(=O)N/N=C/c2ccc(-c3cccc(C(=O)O)c3)o2)s1 | inactive
5 | Cc1cccc(-c2nnc3sc(-c4ccccc4)nn23)c1 | inconclusive [inhibitor, single point]
6 | O=C(COc1ccc(S(=O)(=O)N2CCCC2)cc1)N1CCN(c2ccccc2F)CC1 | inconclusive [inhibitor, partial curve]
7 | COc1cc(NC(=O)c2ccco2)ccc1NC(=O)c1ccccc1Cl | inconclusive [inhibitor, partial curve]
8 | COc1ccc(N(Cc2cc(=O)[nH]c3ccccc23)C(=O)c2ccco2)cc1 | inactive
9 | N#Cc1cc2cc3c(cc2nc1NCCNC(=S)NCCCN1CCOCC1)OCO3 | inconclusive [inhibitor, single point]
10 | CN1CCN(C(=O)c2cc3nc(-c4ccccc4)cc(C(F)(F)F)n3n2)CC1 | inconclusive [inhibitor, partial curve]
11 | COc1cccc(CNC(=O)CCC2CCCN(Cc3ccc(OC(F)F)cc3)C2)c1 (configuration not stated) | inconclusive [inhibitor, partial curve]
12 | Cc1cccc(NC(=O)c2ccccc2OCC(=O)c2ccccc2)c1 | inconclusive [inhibitor, single point]
13 | Cc1noc(C)c1COc1cccc(C(=O)Nc2ccccc2N2CCOCC2)c1 | inconclusive [inhibitor, single point]
14 | CCOc1ccc(N(C)S(=O)(=O)c2cc(-c3cc(C)no3)ccc2OC)cc1 | inconclusive [inhibitor, partial curve]
15 | COc1ccc(OCCCC(=O)Nc2cccc(S(=O)(=O)N3CCCCCC3)c2)cc1 | inconclusive [inhibitor, single point]
16 | COc1ccc(CN2CCN(Cc3ccc(C(F)(F)F)cc3)CC2)cc1 | inconclusive [inhibitor, single point]
17 | CCOC(=O)c1cc2c(=O)[nH]ccc2nc1C(F)(F)F | inactive
18 | Cc1cccc(NC(=O)c2ccco2)c1C | inactive
19 | Cc1cc(-c2ccccc2)nc(=O)[nH]1 | inactive
20 | COC(=O)c1c(C)n(Cc2ccc3c(c2)OCO3)c2ccc(O)cc12 | inconclusive [inhibitor, single point]
21 | O=C(Cn1c(NCCO)nc2ccccc21)Nc1ccc2c(c1)OCCCO2 | inconclusive [inhibitor, partial curve]
22 | Cc1cc(C)nc(N/N=C/c2ccccc2OCc2ccc(Cl)cc2)n1 | inconclusive [inhibitor, single point]
23 | COc1ccc(N2CCN(C(=O)CN3CCN(C(c4ccccc4)c4ccccc4)CC3)CC2)cc1 | inconclusive [inhibitor, full curve]
24 | O=C(CS(=O)(=O)c1ccccc1)Nc1nc2ccccc2s1 | inactive

Row | Structure (SMILES) | Potency
25 | COCCn1c(=O)[nH]c2cc(C(=O)NCc3ccccc3)ccc2c1=O | inconclusive [inhibitor, single point]
26 | O=C(CN1CCN(CCO)CC1)Nc1ccc(Cl)cc1C(=O)c1ccccc1 | inconclusive [inhibitor, partial curve]
27 | CCc1cccc(C)c1NC(=S)NCC(c1cccnc1)N(C)C (configuration not stated) | inactive
28 | CC1CCCC(C)N1C(=O)COC(=O)Cn1cnc2c1c(=O)n(C)c(=O)n2C (configuration not stated) | inconclusive [inhibitor, single point]
29 | CN1CC(=O)N(CC(=O)Nc2cccc3ccccc23)C1=O | inactive
30 | Cc1ccc(C)c2nc3sc(C(=O)N4CCOCC4)c(N)c3cc12 | inconclusive [inhibitor, single point]
31 | CCc1cccc2c(C(=O)COC(=O)c3ccc([N+](=O)[O-])s3)c[nH]c12 | active: 28.2 µM
32 | Cc1ccc(C(=O)N2CCN3C(=O)c4ccccc4C23c2ccccc2)cc1 (configuration not stated) | inactive
33 | Cc1ccc(S(=O)(=O)Nc2ccc3cn[nH]c3c2)c(C)c1 | inactive
34 | O=C(c1cccs1)N1CCC(c2nc3c(nnn3Cc3c(Cl)cccc3Cl)c(=O)[nH]2)CC1 | inactive
35 | Cn1c(=O)c2c(nc(N3CCCCCC3)n2CC(O)COc2ccc(Cl)cc2)n(C)c1=O (configuration not stated) | inconclusive [inhibitor, single point]
36 | Cc1cc(C(=O)OCC(=O)NC(C)c2ccccc2)c(C)o1 (configuration not stated) | inactive
37 | CCOc1cc(C(=S)N2CCOCC2)ccc1OC | inactive
38 | O=C(NCCOCCOCCNC(=O)c1cccnc1)c1cccnc1 | inactive
39 | Nc1cc(-c2ccc(Cl)cc2)nn1S(=O)(=O)c1ccc(Cl)cc1 | inconclusive [inhibitor, single point]
40 | Cc1ccc(Cn2c(N3CCN(C)CC3)nc3c2c(=O)[nH]c(=O)n3C)cc1 | inactive
41 | COc1cc(C(=O)Oc2cccc(/C=N/NC(=O)c3cccnc3)c2)cc(OC)c1OC | inconclusive [inhibitor, partial curve]
42 | COc1ccc(CCNc2nc(-c3ccco3)cc(C(F)(F)F)n2)cc1OC | inactive
43 | O=C(Nc1ncc(Cc2cccc(Cl)c2)s1)c1cccs1 | active: 22.4 µM
44 | CC(C)N(Cc1nccn1C)C(=O)c1cc(COc2ccc(-n3cncn3)cc2)on1 | inconclusive [inhibitor, single point]
45 | O=C(NCC1COc2ccccc2O1)C1CCN(S(=O)(=O)c2ccccc2)CC1 (configuration not stated) | inconclusive [inhibitor, single point]
46 | COc1cc(Cl)c(C)cc1NC(=O)COC(=O)/C=C/c1c(C)nn(C2CCS(=O)(=O)C2)c1Cl (configuration not stated) | inconclusive [inhibitor, single point]
47 | CC1CCN(c2nc(-c3cccnc3)nc3scc(-c4ccccc4)c23)CC1 | active: 22.4 µM
